One molecule from the supplement of paper PMC8728848 can be followed below.

The other results are listed elsewhere or left out.

Holding throughout (assay): glycan array binding signal (z-score within array); higher = stronger binding
Settings in all cases: glycan notation: IUPAC condensed, linker removed

Assay [1] concerns the target Neu5Ac(a2-6)Gal(b1-4)GlcNAc(b1-3)Gal(b1-4)GlcNAc(b1-3)Gal(b1-4)GlcNAc(b1-2)Man(a1-3)[Neu5Ac(a2-6)Gal(b1-4)GlcNAc(b1-3)Gal(b1-4)GlcNAc(b1-3)Gal(b1-4)GlcNAc(b1-2)Man(a1-6)]GalNAc. The gist of the method:
(§1)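 Glycan array data were curated from 3228 arrays in the Consortium for Functional Glycomics database and kept only where the protein sequence was available. Glycan names were converted to IUPAC-condensed notation, and columns mapping to the same glycan were averaged. The binding signal is a within-array Z-score, averaged across arrays of the same protein sequence at different concentrations or buffers and across linkers. Negative Z-scores can be read as non-binding.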

Assay [2] addresses Neu5Ac(a2-6)Gal(b1-4)GlcNAc(b1-3)Gal(b1-4)GlcNAc(b1-3)GalNAc. The method in brief:
as §1

The target in assay [3] is Neu5Ac(a2-6)Gal(b1-4)GlcNAc(b1-3)Gal(b1-4)GlcNAc(b1-3)[Neu5Ac(a2-6)Gal(b1-4)GlcNAc(b1-3)Gal(b1-4)GlcNAc(b1-6)]GalNAc. The gist of the method: as §1
For assay [4], the target named is Neu5Ac(a2-6)Gal(b1-4)GlcNAc(b1-3)Gal(b1-4)GlcNAc(b1-6)[Gal(b1-3)]GalNAc. The gist of the method:
as §1

Assay [5] addresses Neu5Ac(a2-6)Gal(b1-4)GlcNAc(b1-3)Gal(b1-4)[Fuc(a1-3)]GlcNAc(b1-3)Gal(b1-4)[Fuc(a1-3)]GlcNAc. The gist of the method: as §1
Assay [6] has as its target Neu5Ac(a2-6)Gal(b1-4)GlcNAc(b1-3)GalNAc. The gist of the method:
as §1

The target in assay [7] is Neu5Ac(a2-6)Gal(b1-4)GlcNAc(b1-3)[Neu5Ac(a2-6)Gal(b1-4)GlcNAc(b1-6)]GalNAc. The method in brief: as §1
The target in assay [8] is Neu5Ac(a2-6)Gal(b1-4)GlcNAc(b1-6)GalNAc. The gist of the method: as §1
Assay [9] has as its target Neu5Ac(a2-6)Gal(b1-4)GlcNAc(b1-6)[Gal(b1-3)GlcNAc(b1-3)]Gal(b1-4)Glc. The method in brief: as §1
Assay [10] has as its target Neu5Ac(a2-6)Gal(b1-4)GlcNAc(b1-6)[Gal(b1-3)]GalNAc. The method in brief:
as §1

The target of assay [11] is Neu5Ac(a2-6)Gal(b1-4)GlcNAc6S. The gist of the method:
as §1

Another assay deals with Neu5Ac(a2-6)GalNAc. The gist of the method:
as §1

For assay [12], the target named is Neu5Ac(a2-6)GalNAc(b1-4)GlcNAc. The method in brief: as §1
The target in assay [13] is Neu5Ac(a2-6)GalNAc(b1-4)GlcNAc6S. The gist of the method:
as §1

Assay [14] concerns the target Neu5Ac(a2-6)GlcNAc(b1-4)GlcNAc. The gist of the method:
as §1

The target in assay [15] is Neu5Ac(a2-6)GlcNAc(b1-4)GlcNAc(b1-4)GlcNAc. The gist of the method: as §1
The target in the next assay is Neu5Ac(a2-8)Neu5Ac. The method in brief:
as §1

Assay [16] deals with Neu5Ac(a2-8)Neu5Ac(a2-3)Gal(b1-3)GalNAc(b1-4)[Neu5Ac(a2-3)]Gal(b1-4)Glc. The gist of the method: as §1
In assay [17] the target is Neu5Ac(a2-8)Neu5Ac(a2-3)Gal(b1-3)GalNAc(b1-4)[Neu5Ac(a2-8)Neu5Ac(a2-3)]Gal(b1-4)Glc. The method in brief: as §1
The target in assay [18] is Neu5Ac(a2-8)Neu5Ac(a2-3)Gal(b1-4)Glc. The gist of the method: as §1
Assay [19] has as its target Neu5Ac(a2-8)Neu5Ac(a2-3)Gal(b1-4)GlcNAc. The method in brief:
as §1

In assay [20] the target is Neu5Ac(a2-8)Neu5Ac(a2-3)[Gal(b1-3)GalNAc(b1-4)]Gal(b1-4)Glc. The method in brief: as §1
Assay [21] deals with Neu5Ac(a2-8)Neu5Ac(a2-3)[GalNAc(b1-4)]Gal(b1-4)Glc. The gist of the method: as §1

B1: SRA-1 (Homo sapiens), P21757 (protein)
chain: MEQWDHFHNQQEDTDSCSESVKFDARSMTALLPPNPKNSPSLQEKLKSFKAALIALYLLVFAVLIPLIGIVAAQLLKWETKNCSVSSTNANDITQSLTGKGNDSEEEMRFQEVFMEHMSNMEKRIQHILDMEANLMDTEHFQNFSMTTDQRFNDILLQLSTLFSSVQGHGNAIDEISKSLISLNTTLLDLQLNIENLNGKIQENTFKQQEEISKLEERVYNVSAEIMAMKEEQVHLEQEIKGEVKVLNNITNDLRLKDWEHSQTLRNITLIQGPPGPPGEKGDRGPTGESGPRGFPGPIGPPGLKGDRGAIGFPGSRGLPGYAGRPGNSGPKGQKGEKGSGNTLTPFTKVRLVGGSGPHEGRVEILHSGQWGTICDDRWEVRVGQVVCRSLGYPGVQAVHKAAHFGQGTGPIWLNEVFCFGRESSIEECKIRQWGTRACSHSEDAGVTCTL
Turning to B1, the “glycan array binding signal (z-score)” value in assay [1] is 0.291; in assay [2], -0.133; in assay [3], 0.583; in assay [4] it was -0.079; in assay [5], 0.166; in assay [6], -0.285. Besides, the “glycan array binding signal (z-score)” value in assay [7] was -0.102; in assay [8], 0.169; in [9], -0.443; in [10], -0.303; in assay [11], -0.35; with Neu5Ac(a2-6)GalNAc, 0.158. The “glycan array binding signal (z-score)” value in [12] is 0.14; in assay [13], -0.275; in assay [14], -0.304; in assay [15] it was -0.497; with Neu5Ac(a2-8)Neu5Ac it was -0.121; in assay [16] it was -0.069. The “glycan array binding signal (z-score)” value in assay [17] is 0.305; in assay [18], -0.194; in [19], 0.077; in assay [20], -0.047; in [21] it was -0.401.
